System: SARS-CoV-2
Test: Phase 2/3 study, Phase 3 Part: SARS-CoV-2 viral RNA amount on Day 4
Format: in vivo, human
Settings: for Change from baseline in SARS-CoV-2 viral RNA amount on Day 4: Difference of least mean square (vs placebo) / Change from baseline in SARS-CoV-2 viral RNA amount on Day 4: Least mean square (covariance analysis) / Change from baseline in SARS-CoV-2 viral RNA amount on Day 4: Maximum value / Change from baseline in SARS-CoV-2 viral RNA amount on Day 4: Mean value / Change from baseline in SARS-CoV-2 viral RNA amount on Day 4: Median value / Change from baseline in SARS-CoV-2 viral RNA amount on Day 4: Minimum value: mild/moderate patients
[1] = ITT population, 375/125 mg group
[2] = ITT, onset to randomization less than 72 hours, 375/125 mg group
[3] = ITT population, 750/250 mg group
[4] = ITT, onset to randomization less than 72 hours, 750/250 mg group

Cn1cnc(Cn2c(=O)[nH]/c(=N\c3cc4cn(C)nc4cc3Cl)n(Cc3cc(F)c(F)cc3F)c2=O)n1 [(6E)-6-[(6-chloro-2-methyl-2H-indazol-5-yl)imino]-3-[(1-methyl-1H-1,2,4-triazol-3-yl)methyl]-1-[(2,4,5-trifluorophenyl)methyl]-1,3,5-triazinane-2,4-dione]
Decrease of adjusted estimated value of the change from baseline in SARS-CoV-2 viral RNA amount on Day 4 as compared with placebo group [1]: 1.2 log10 (copies/mL) | Decrease of adjusted estimated value of the change in SARS-CoV-2 viral RNA amount on Day 4 as compared with placebo group [2]: about 1.5 log10 (copies/mL) | Change from baseline in SARS-CoV-2 viral RNA amount on Day 4: Difference of least mean square (vs placebo) [1]: −1.20 log10 copies/mL | Change from baseline in SARS-CoV-2 viral RNA amount on Day 4: Least mean square (covariance analysis) [1]: −2.46 log10 copies/mL | Change from baseline in SARS-CoV-2 viral RNA amount on Day 4: Maximum value [1]: 4.34 log10 copies/mL | Change from baseline in SARS-CoV-2 viral RNA amount on Day 4: Mean value [1]: −2.646 log10 copies/mL | Change from baseline in SARS-CoV-2 viral RNA amount on Day 4: Median value [1]: −2.695 log10 copies/mL | Change from baseline in SARS-CoV-2 viral RNA amount on Day 4: Minimum value [1]: −5.71 log10 copies/mL | Change from baseline in SARS-CoV-2 viral RNA amount on Day 4: Difference of least mean square (vs placebo) [3]: −1.20 log10 copies/mL | Change from baseline in SARS-CoV-2 viral RNA amount on Day 4: Least mean square (covariance analysis) [3]: −2.46 log10 copies/mL | Change from baseline in SARS-CoV-2 viral RNA amount on Day 4: Maximum value [3]: 1.01 log10 copies/mL | Change from baseline in SARS-CoV-2 viral RNA amount on Day 4: Mean value [3]: −2.594 log10 copies/mL | Change from baseline in SARS-CoV-2 viral RNA amount on Day 4: Median value [3]: −2.710 log10 copies/mL | Change from baseline in SARS-CoV-2 viral RNA amount on Day 4: Minimum value [3]: −5.27 log10 copies/mL | Change from baseline in SARS-CoV-2 viral RNA amount on Day 4: Difference of least mean square (vs placebo) [2]: −1.47 log10 copies/mL | Change from baseline in SARS-CoV-2 viral RNA amount on Day 4: Least mean square (covariance analysis) [2]: −2.48 log10 copies/mL | Change from baseline in SARS-CoV-2 viral RNA amount on Day 4: Maximum value [2]: 1.43 log10 copies/mL | Change from baseline in SARS-CoV-2 viral RNA amount on Day 4: Mean value [2]: −2.737 log10 copies/mL | Change from baseline in SARS-CoV-2 viral RNA amount on Day 4: Median value [2]: −2.775 log10 copies/mL | Change from baseline in SARS-CoV-2 viral RNA amount on Day 4: Minimum value [2]: −5.71 log10 copies/mL | Change from baseline in SARS-CoV-2 viral RNA amount on Day 4: Difference of least mean square (vs placebo) [4]: −1.48 log10 copies/mL | Change from baseline in SARS-CoV-2 viral RNA amount on Day 4: Least mean square (covariance analysis) [4]: −2.49 log10 copies/mL | Change from baseline in SARS-CoV-2 viral RNA amount on Day 4: Maximum value [4]: 0.33 log10 copies/mL | Change from baseline in SARS-CoV-2 viral RNA amount on Day 4: Mean value [4]: −2.690 log10 copies/mL | Change from baseline in SARS-CoV-2 viral RNA amount on Day 4: Median value [4]: −2.790 log10 copies/mL | Change from baseline in SARS-CoV-2 viral RNA amount on Day 4: Minimum value [4]: −5.27 log10 copies/mL

— patent US20250099474A1 (priority 2022, published 2025)
